Reference: PubChem BioAssay AID488969 (Vanderbilt High Throughput Screening Facility, 2010)
Over roughly 110,000 compounds, “z-score” has its median near -0.1; the highest 2% begin near 2. The list shows a part of the results. Active and inactive are the calls of the source.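 How the source made its calls: active means z-score in the third read window above 3 or below -3; inactive means the rest.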

Biological target: Metabotropic glutamate receptor 8 (Rattus norvegicus) (UniProt P70579)
Test: rat mGluR8 modulators via GIRK flux, primary screen, cell-based, thallium flux, HTS (AID 488969)
Conditions: HEK293 rat mGluR8, GIRK (G protein-gated inwardly rectifying potassium channel) thallium flux, FluoZin2; at 10 µM; stronger effect = higher value; submaximal glutamate (EC20) added with thallium

UniProt P70579, sequence (P70579 whole entry, looked up): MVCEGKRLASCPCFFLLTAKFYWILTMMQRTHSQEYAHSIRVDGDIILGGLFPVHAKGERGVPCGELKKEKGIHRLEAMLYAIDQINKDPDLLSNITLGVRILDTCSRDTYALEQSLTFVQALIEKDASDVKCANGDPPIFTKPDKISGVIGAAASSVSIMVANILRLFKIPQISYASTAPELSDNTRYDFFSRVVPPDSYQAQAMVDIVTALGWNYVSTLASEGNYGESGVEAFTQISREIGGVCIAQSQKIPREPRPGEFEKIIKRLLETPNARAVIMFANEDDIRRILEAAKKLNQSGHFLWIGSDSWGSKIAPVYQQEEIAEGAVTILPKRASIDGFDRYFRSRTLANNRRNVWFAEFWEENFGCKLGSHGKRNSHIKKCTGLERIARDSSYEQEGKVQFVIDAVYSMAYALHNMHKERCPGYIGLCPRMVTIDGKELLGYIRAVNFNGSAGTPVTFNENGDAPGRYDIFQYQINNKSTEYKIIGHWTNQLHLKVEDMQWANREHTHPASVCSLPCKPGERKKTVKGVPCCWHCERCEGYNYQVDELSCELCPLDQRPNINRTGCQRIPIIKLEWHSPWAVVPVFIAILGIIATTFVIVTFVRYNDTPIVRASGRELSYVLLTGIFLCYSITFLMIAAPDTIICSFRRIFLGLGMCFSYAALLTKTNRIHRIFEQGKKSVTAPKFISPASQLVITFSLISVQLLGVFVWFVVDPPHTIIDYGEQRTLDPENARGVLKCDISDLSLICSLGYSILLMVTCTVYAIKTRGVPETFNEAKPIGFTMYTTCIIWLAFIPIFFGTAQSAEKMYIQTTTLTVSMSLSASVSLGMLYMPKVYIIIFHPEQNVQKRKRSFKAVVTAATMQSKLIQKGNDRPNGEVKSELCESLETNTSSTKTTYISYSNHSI

Structure (SMILES)	z-score
CN(Cc1ccccc1)C(=O)Cn1c(=O)oc2cc(S(=O)(=O)N3CCCC3)ccc21	-0.16
O=S(=O)(c1ccc(-c2nnc(SCc3nnc(-c4ccccc4)o3)o2)cc1)N1CCCC1	active: 3.72
CCOC(=O)c1c(NC(=O)CSc2nnc(C)s2)sc2c1CCCCC2	0.0222
O=c1c2ccsc2ncn1Cc1ccc(Cl)cc1	0.339
CNC(=O)C1CC(=O)N(c2ccc(F)c(Cl)c2)C1 (stereo unspecified)	0.658
Cc1c(NC(=O)COC(=O)c2c3c(nc4ccccc24)CCCC3)c(=O)n(-c2ccccc2)n1C	-0.393
CC1Cc2ccccc2N1C(=O)Cn1c(=O)oc2cc(S(=O)(=O)NC3CCCC3)ccc21 (stereo unspecified)	-0.286
COc1ccccc1/C=C1/SC(=O)N(CCC(=O)Nc2ccc(S(=O)(=O)Nc3nccs3)cc2)C1=O	-0.59
CCOc1ccccc1NC(=O)CSc1nnc(-c2ccco2)n1Cc1ccco1	active: -4.02
Cc1nc2cc(C(=O)O)ccc2n1C1CCCCC1	0.357
Cc1c(NS(=O)(=O)c2ccc3c(c2)OCCO3)cccc1-c1nc2cccnc2s1	0.463
CCOC(=O)C1C(=O)C=C(c2ccc(OC)cc2)CC1c1ccco1 (stereo unspecified)	1.21
O=S(=O)(Nc1ccc(N2CCCCC2)cc1)c1cccs1	-0.488
O=C1c2ccccc2C(=O)N1CN(C(=O)COc1ccccc1)c1ccccc1	-0.465
N#Cc1cccc(NC(=O)COC(=O)c2ccccc2Sc2ccccc2C#N)c1	0.107
COc1ccc(-c2nc(-c3cccs3)c(-c3cccs3)[nH]2)cc1O	-0.338
O=C(COc1ccccc1)Nc1nc2ccccc2[nH]1	-0.199
Cc1ccc(N2C(=O)CC3(CC4C=CC3C4)C2=O)cc1 (stereo unspecified)	-0.471
COc1cc(C(=O)Nc2cccc(-c3nc4ccccc4o3)c2C)cc(OC)c1OC	-0.059
CSc1ccccc1NC(=O)CCn1c(=O)sc2ccccc21	-0.581
CC(=O)N1CN(CCCn2ccnc2)Cc2c1sc1c2CCCC1	-0.346
O=S(=O)(Nc1nc2ccccc2nc1Cl)c1ccccc1	0.321

Structure (SMILES)	z-score
CN(Cc1ccc(-n2cccn2)cc1)C(=O)c1cnn2c1NC(c1ccco1)CC2C(F)(F)F (stereo unspecified)	-0.35
Cc1cc(=O)oc2ccc(OC(=O)c3cccc(S(=O)(=O)N4CCOCC4)c3)cc12	-0.185
O=C(NCCc1ccccc1)c1ccc(=O)oc1	-0.205
CCCCCC1CC(CC(=O)O)C(=O)O1 (stereo unspecified)	-0.0183
N#Cc1cccc(NC(=O)CC2CCCCC2)c1	0.239
COc1ccccc1OCc1nc2ccccc2s1	-0.142
CCOc1cc(/C=C2\C(=O)N(c3nc(-c4ccc(Br)cc4)cs3)N=C2c2ccccc2)ccc1O	-0.39
Cc1cccc(N2CCN(CC(O)COCc3cccs3)CC2)c1C (stereo unspecified)	0.0218
Cc1ccc(CC(NC(=O)c2ccccc2)C(=O)NC(C)C(=O)O)cc1 (stereo unspecified)	-1.7
Cc1cc(-c2csc(N)n2)c(C)n1C	-0.0754
COc1ccc(C2c3c(oc4ccccc4c3=O)C(=O)N2c2ccccn2)cc1 (stereo unspecified)	-0.221
COc1cc(OC)cc(-c2cc3nc(C)c(CCC(=O)O)c(=O)n3[nH]2)c1	0.713
C=CCn1c(-c2cccc3ccccc23)n[nH]c1=S	-0.0908
COc1ccc(NC(=O)CN(C2CCCCC2)S(C)(=O)=O)cc1OC	1.04
O=C(Cc1ccc(F)cc1)NC1CCCC1	0.266
COc1ccc(CN(Cc2ccco2)S(=O)(=O)c2ccc(S(=O)(=O)N3CCCC3)cc2)cc1	-0.254
Cc1cc(C(=O)CN2C(=O)c3cccc(N)c3C2=O)c(C)n1Cc1cccs1	-0.264
Cc1ccc(/C=C/C(=O)OCC(=O)Nc2ccccc2Sc2ccccc2)cc1	0.00277
O=C(O)C1CCCCC1C(=O)Nc1ccccc1F (stereo unspecified)	-0.0496
Cc1ccccc1-c1nc(CN2CCC(C(=O)O)CC2)c(C)o1	-0.619
COc1cc2c(cc1OC)C(c1cc(OC)c(OC)c(OC)c1)NCC2 (stereo unspecified)	-0.346
CC(C)(C)C(=O)N1CCN(c2ccc([N+](=O)[O-])c(NCC3CCCO3)c2)CC1 (stereo unspecified)	-0.343

Structure (SMILES)	z-score
COc1cc(NC(=O)c2cccc(COCC(F)(F)C(F)F)c2)cc(OC)c1OC	0.706
Cc1cccc(CN2C(=O)CCSc3ccc(Cl)cc32)c1	-0.268
CC(/C=N/Nc1nc2ccccc2[nH]1)=C\c1ccccc1	-0.239
Cc1ccc(C(C)n2cc(C(=O)NCc3ccncc3)nn2)cc1 (stereo unspecified)	-0.972
Cc1ccc(-n2ncc(N(C)C)c(Cl)c2=O)cc1	0.00759
CCOC(=O)CNC(=O)c1cnn2cccnc12	0.154
CC(C)OP(=O)(c1ccc(N(C)C)cc1)C(Nc1ccccc1)c1cccnc1 (stereo unspecified)	-0.279
CCCc1nnc(NC(=O)CN2C(=O)C3C4C=CC(C4)C3C2=O)s1 (stereo unspecified)	0.0617
Cn1c(=O)c2c(SCC(=O)Nc3ccc4c(c3)OCCO4)nc(CC(C)(C)C)nc2n(C)c1=O	0.141
COc1ccc(N2CCN(c3ccc(N4C(=O)COCC4=O)cc3[N+](=O)[O-])CC2)cc1	-0.0476
O=C(Cn1c(=O)n(Cc2ccc3c(c2)OCO3)c(=O)c2ccccc21)N1CCCc2ccccc21	-0.353
CCn1ncc(Br)c1C(=O)Nc1ccccc1C(=O)OC	-0.647
COc1ccc(-c2nnc(Nc3ccc(OC)c(C(=O)N4CCCCC4)c3)c3ccccc23)cc1	-0.279
O=C(NCCCN1CCN(CCCNC(=O)c2cccc([N+](=O)[O-])c2)CC1)c1cccc([N+](=O)[O-])c1	-0.584
COc1ccccc1N(CC(=O)N1CCCCC1)S(=O)(=O)c1ccccc1	-0.979
Cc1noc(/C=C/N(C)C)c1S(=O)(=O)N1CCCC(C(=O)N2CCc3ccccc32)C1 (stereo unspecified)	-0.205
NNC(=O)CN1C(=O)Nc2ccc(Br)cc2C1c1ccccc1 (stereo unspecified)	-0.236
Cc1ccc(/C=C/C(=O)Nc2nccs2)o1	-0.147
Cc1oc(/N=C/c2ccccc2O)c(C#N)c1C	-0.169
CC(C(=O)Nc1sc2c(c1C(=O)NCc1ccco1)CCCC2)N1C(=O)c2ccccc2C1=O (stereo unspecified)	-0.16
N#Cc1cc2ccccc2nc1SCC(=O)Nc1ccc(S(=O)(=O)N2CCCC2)cc1	0.0862
COCCN(C(=O)CNC(=O)c1cccs1)C(C(=O)NC1CCCCC1)c1ccco1 (stereo unspecified)	-0.195

Structure (SMILES)	z-score
CC1(C)Oc2ccc3ccc(=O)oc3c2/C(=C/NCCO)C1=O	-0.152
COc1cccc(OC)c1C(=O)Nc1ccc2c3c(cccc13)CC2	-0.248
Cc1cc(C)cc(N(CC(=O)N2CCn3c2nc2ccccc23)S(=O)(=O)c2c(C)noc2C)c1	1.97
C/C(=C\C(=O)c1ccccc1)Nc1ccc(N2CCOCC2)cc1	-0.153
COc1ccc2nc(-n3c(O)c(C4=c5ccccc5=NC4=O)[nH]c3=S)sc2c1	0.205
CC1CCCC(NC(=O)COC(=O)c2ccc3ccccc3n2)C1C (stereo unspecified)	-0.336
COc1ccc(NCc2ccc3c(c2)OCO3)cc1Cl	0.737
c1csc(C2=Nn3c(nnc3-c3ccncc3)SC2)c1	0.00281
N#C/C(C(=O)NCc1ccco1)=C1/SC(Cc2ccc(Cl)cc2)C(=O)N1c1ccccc1 (stereo unspecified)	-0.209
CN1CCN(S(=O)(=O)c2ccc(NC(=O)C(C)(C)C)cc2)CC1	-0.556
CCN1C(=O)/C(=C2/C=Cc3cc(C)ccc3N2CC)N(C)C1=S	0.264
Cn1c(N2CCOCC2)nc2c1c(=O)n(Cc1ccc(Cl)c(Cl)c1)c(=O)n2C	-0.258
CN(C)S(=O)(=O)c1ccc(NC(=O)COC(=O)c2ccccn2)cc1	-0.152
Cc1cc(C)n(-c2nc3ccccc3nc2N2CCN(C(=O)c3ccc(F)cc3)CC2)n1	0.0365
CCOc1ccc(-c2n[nH]c(C(=O)NN)c2C)cc1	0.202
CCN(CC)C(=O)COc1ccc(Br)cc1Cl	-0.89
Cc1cn(Cc2ccccc2)c(=O)[nH]c1=O	-0.129
CCn1c(=O)c(C(=O)NC(C)C)c(O)c2ccccc21	-0.78
O=C(Nc1ccc2c(c1)OCCO2)c1cc2sccc2n1Cc1ccccc1	-0.848
CCCc1nnc(NC(=O)CCC(=O)O)s1	0.195
O=C(CN1CCN(C(=O)c2ccco2)CC1)Nc1cc(C(F)(F)F)ccc1Cl	0.217
O=C(CN(c1ccccc1)S(=O)(=O)c1ccc(Cl)cc1)Nc1ccccc1C(=O)N1CCCC1	-0.307

Structure (SMILES)	z-score
Cc1cc(C)c(C)c(S(=O)(=O)N2CCN(Cc3nc4ccccc4[nH]3)CC2)c1C	-0.269
O=C(NC(=S)Nc1ccc(N2CCCCC2)cc1)c1cccs1	active: 11
CCOc1ccccc1N1CCN(C(=O)CC(C)C)CC1	-0.226
O=C(NC1CCCCC1)C(c1ccc2ncccc2c1)N(Cc1ccccc1)C(=O)c1cccs1 (stereo unspecified)	-1.29
O=C(NCCCN1CCCC1=O)c1cc(NS(=O)(=O)c2ccc(F)cc2)cc(NS(=O)(=O)c2ccc(F)cc2)c1	-0.119
O=C(N/C=C/c1ccc(Cl)cc1)NCc1ccc(Cl)cc1	0.198
Nc1nc(NC(=O)c2cccc(S(=O)(=O)N3CCCCCC3)c2)nc(-c2ccccc2)n1	0.128
CC(=O)OCCCNc1cc(Sc2nc3ccccc3s2)c2nonc2c1[N+](=O)[O-]	0.511
Cc1cccc(N2CCN(C(=O)Cc3ccc(Br)cc3)CC2)c1C	-0.202
CC(C)C(NS(=O)(=O)c1cccs1)C(=O)N(C)Cc1ccccc1 (stereo unspecified)	-0.217
O=C(Nc1nnc(-c2cccs2)o1)c1cccc(C(F)(F)F)c1	active: 14.1
COc1ccc(-c2cc(C(F)(F)F)nc(N3CCN(C)CC3)n2)cc1OC	-0.0828
CC1=CCC2C(=O)N(c3ccc(Br)cc3C)C(=O)C2C1 (stereo unspecified)	0.000957
COc1cccc(-c2csc(N3CCN(CC(=O)Nc4ccc5c(c4)OCO5)CC3)n2)c1	0.233
CC(C)(C)c1nnc(N/N=C/c2ccccc2O)n(N)c1=O	-0.149
O=C(O)C1C2C=CC(O2)C1C(=O)NC1CCCc2ccccc21 (stereo unspecified)	-0.332
CSCCC(NC(=O)OC(C)(C)C)C(=O)Oc1ccc2c(=O)c(-c3ccc4c(c3)OCCO4)coc2c1 (stereo unspecified)	-0.216
COC(=O)c1ccc(C(=O)Nc2ccc3nc(-c4cccnc4)[nH]c3c2)cc1	-0.377
